From publication PMC12040169 (PLOS Biology, 2025)
This is one part of the list.

What follows are molecules tested on T1, C. trachomatis L2/434/Bu expressing GFP (CTL2-GFP). Conditions: total inclusion area; 28.5 h, 10 µM; inhibitor.
T1 construct: L2/434/Bu GFP intracellular growth in HeLa cells
Design: species or system HeLa; C. trachomatis total inclusion area by high-content imaging, normalised to DMSO
Method in brief: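 High-content images of fixed, Hoechst-stained infected cultures supply inclusion area and count (growth) plus nuclei number (viability), complementing bulk GFP/resorufin fluorescence. MIC determination is unchanged from the primary assay.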

SMILES | % of control remaining
C#CCn1cc(CN2CCc3c(nc(C)[nH]c3=O)C2)c2ccccc21 [CBK282382] | 120.387
Cn1cc(C2CCCCCN2C(=O)c2cccc(F)c2)cn1 (stereo not drawn) [CBK284970] | 66.343
COc1ncc(-c2nccnc2N[C@H](C)c2ccccc2)c(OC)n1 [CBK036588] | 107.043
COc1cccc2sc(NC(=O)c3c(F)cccc3F)nc12 [CBK149283] | 106.534
NCCCC(C(=O)O)C(=O)c1ccccc1-c1ccccc1 (stereo not drawn) [CBK286941] | 84.0861
CN(C)S(=O)(=O)c1ccc(-c2nn(-c3ccccc3)cc2/C=C(\C#N)c2nc3ccccc3c(=O)[nH]2)cc1 [CBK266266] | 87.5856
CCCn1cc(C(=O)NCc2ccc(Cl)cc2)c(=O)c2cc(CN3CCOCC3)sc21 [CBK018478] | 99.8249
Cc1ccc(S(=O)(=O)/N=C(\Nc2nc3ccccc3o2)NS(=O)(=O)c2ccc(C)cc2)cc1 [CBK266728] | 72.1539
CN(C)c1ccc(-c2nnc([C@H]3CCN(C(=O)c4ccccc4)C3)o2)cc1 [CBK289407] | 93.4841
COc1ccc(Cc2nc(CC3CCCOC3)n(CC(F)(F)F)n2)cc1 (stereo not drawn) [CBK307140] | 87.4452
CCC(=O)N1CCCc2cc(C(O)CN3CCN(c4ccc(F)cc4)CC3)ccc21 (stereo not drawn) [CBK286480] | 16.5074
COCOc1ccc(-c2nccnc2OCCc2cccs2)cc1 [CBK106911] | 84.6956
NS(=O)(=O)c1ccc(-c2nc(-c3ccccc3)no2)cc1 [CBK269957] | 104.861
Cc1ccc2nc(-c3ccc(/N=C/c4cccc(O)c4O)cc3)sc2c1 [CBK261583] | 95.9545
Nc1nc2ccccc2cc1-c1cccs1 [CBK112549] | 73.5488
Cc1ccc(S(=O)(=O)NCC(=O)N2CCN(Cc3ccccc3)CC2)cc1 [CBK265991] | 108.035
COc1cc(/C=N/NC(N)=O)ccc1OC(=O)c1sc2ccccc2c1Cl [CBK262265] | 97.3293
CCCNC(=O)N1CCN2C(=O)c3cc(-c4ccccc4F)ccc3NC(=O)[C@@H]2C1 [CBK289595] | 101.12
CCCCCNC(=O)C1CCN(Cn2c(=O)oc3cc(Cl)ccc32)CC1 [CBK298290] | 102.13
Cn1nc(-c2ccc(N3CCCCC3)c(NC(=O)COc3ccccc3)c2)c2ccccc2c1=O [CBK265780] | 117.621
CN1CCC(N(C)C(=O)NCc2cccc3ccccc23)C1 (stereo not drawn) [CBK155999] | 90.8838
